# From PubChem BioAssay (NCATS)
# Where “and” joins values, the source holds several entries; their conditions need not be identical. Equal values may be shown once. Inconclusive means that the source gave no clear call. Such entries were picked first, then a sample of the others. For some of these results: Potencies beside an inconclusive call are fits to weak or partial responses and may not hold up. Calls of active or inactive are those of the source. Calls follow the shape of the dose curve; as a rule, active = well fitted curve in the direction sought with a large enough effect; inconclusive = small, poorly fitted or top-dose-only effect, or another doubt; inactive = no such curve, though single readings can be large; an effect the other way counts as inactive or inconclusive.
# Experiments:
# [1] = test system: NIH3T3; experiment: Cytotoxic Profiling of Annotated Libraries Using Quantitative High-Throughput Screening (AID 1296008); settings: Five cell lines viability, CellTiter-Glo ATP luminescence, 48-72 h; max response: stronger effect = lower value; also: nearly all actives have a fitted effect of over 60% in size
# How it was run: (§1)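 Compounds were pin-transferred onto cells and incubated 48 or 72 hr at 37 degree Celsius, 95% humidity. CellTiter-Glo was added, plates sat 10 min at room temperature, then ATP-coupled luminescence was imaged as the viability read-out.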
# [2] = test system: Hek293T; experiment: Primary qHTS to identify gynecologic anti-cancer compounds using libraries of approved drugs and bioactive compounds (AID 1345084); settings: Gynecologic cancer cell panel viability, ATPlite luminescence, 48 h, control line for the selectivity index; series mostly up to 57.5 µM; also: nearly all actives have a fitted effect of over 55% in size
# How it was run: (§2)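 Cytotoxicity screen measuring ATP content by luciferase luminescence. Each compound is applied at five concentrations for 48 h at 37 C with 5% CO2.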
# [3] = test system: SKOV3; experiment: as above; settings: Gynecologic cancer cell panel viability, ATPlite luminescence, 48 h; series mostly up to 57.5 µM
# How it was run: as §2
# [4] = test system: WaGa; experiment: qHTS assay to identify novel small-molecules to repurpose for Merkel cell carcinoma treatment (AID 1296009); settings: MCC and control cell lines, CellTiter-Glo viability, 72 h; series mostly up to 46 µM; also: nearly all actives have a fitted effect of over 60% in size
# How it was run: (§3)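 Luminescence from CellTiter-Glo, read 10 min after addition at room temperature, reported viability following a 72 hr, 37 degree celsius treatment with NPC or MIPE compounds in titration; values normalized to plate controls.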
# [5] = test system: JEG-3; experiment: Primary qHTS to identify gynecologic anti-cancer compounds using libraries of approved drugs and bioactive compounds (AID 1345084); settings: Gynecologic cancer cell panel viability, ATPlite luminescence, 48 h; series mostly up to 57.5 µM; also: nearly all actives have a fitted effect of over 55% in size
# How it was run: as §2
# [6] = test system: MCC-13; experiment: qHTS assay to identify novel small-molecules to repurpose for Merkel cell carcinoma treatment (AID 1296009); settings: MCC and control cell lines, CellTiter-Glo viability, 72 h; series mostly up to 46 µM; also: nearly all actives have a fitted effect of over 60% in size
# How it was run: as §3
# [7] = test system: MCC-26; experiment: as above; settings: MCC and control cell lines, CellTiter-Glo viability, 72 h; activity change, negative = cytotoxicity: at 46 µM (top of the series)
# How it was run: as §3
# [8] = test system: UISO; experiment: as above; settings: MCC and control cell lines, CellTiter-Glo viability, 72 h; series mostly up to 46 µM
# How it was run: as §3
# [9] = test system: C33A; experiment: Primary qHTS to identify gynecologic anti-cancer compounds using libraries of approved drugs and bioactive compounds (AID 1345084); settings: Gynecologic cancer cell panel viability, ATPlite luminescence, 48 h; series mostly up to 57.5 µM; also: nearly all actives have a fitted effect of over 55% in size
# How it was run: as §2
# [10] = test system: CAOV3; experiment: as above; settings: Gynecologic cancer cell panel viability, ATPlite luminescence, 48 h; series mostly up to 57.5 µM
# How it was run: as §2
# [11] = test system: CASKI; experiment: as above; settings: Gynecologic cancer cell panel viability, ATPlite luminescence, 48 h; series mostly up to 57.5 µM
# How it was run: as §2
# [12] = test system: Es-2; experiment: as above; settings: Gynecologic cancer cell panel viability, ATPlite luminescence, 48 h; series mostly up to 57.5 µM
# How it was run: as §2
# [13] = test system: OV90; experiment: as above; settings: Gynecologic cancer cell panel viability, ATPlite luminescence, 48 h; series mostly up to 57.5 µM
# How it was run: as §2
# [14] = test system: PA-1; experiment: as above; settings: Gynecologic cancer cell panel viability, ATPlite luminescence, 48 h; series mostly up to 57.5 µM
# How it was run: as §2
# [15] = test system: HeLa; experiment: as above; settings: Gynecologic cancer cell panel viability, ATPlite luminescence, 48 h; series mostly up to 57.5 µM
# How it was run: as §2
# [16] = test system: KB-3-1; experiment: Cytotoxic Profiling of Annotated Libraries Using Quantitative High-Throughput Screening (AID 1296008); settings: Five cell lines viability, CellTiter-Glo ATP luminescence, 48-72 h; max response: stronger effect = lower value; also: nearly all actives have a fitted effect of over 60% in size
# How it was run: as §1
# [17] = test system: MKL-2; experiment: qHTS assay to identify novel small-molecules to repurpose for Merkel cell carcinoma treatment (AID 1296009); settings: MCC and control cell lines, CellTiter-Glo viability, 72 h; activity change, negative = cytotoxicity: at 46 µM (top of the series); also: nearly all actives have a fitted effect of over 60% in size
# How it was run: as §3
# [18] = test system: MKL-1; experiment: as above; settings: MCC and control cell lines, CellTiter-Glo viability, 72 h; series mostly up to 46 µM
# How it was run: as §3
# % is scaled to controls: 0 for no effect and ±100 for the full control effect; potency is read from the fitted curve at half-maximal effect; tags tell the direction and shape of the fitted curve.
smiles,measurement,setting,value
CC(C(=O)O)c1ccc(C(=O)c2ccccc2)s1 (centres undefined),Potency,[1],"inconclusive: 29.9 µM [inhibitor, single point]"
same,Potency,[2],inactive
same,Potency,[3],"inconclusive: 22.4 µM [rising, single point]"
COc1cc(C(=S)N2CCOCC2)ccc1O,max response,[1],inactive: -6.82%
same,Potency,[4],inactive
same,Potency,[5],inactive
Oc1ccc(OCc2ccccc2)cc1,Potency,[1],"inconclusive: 14.8 µM [inhibitor, partial curve]"
Nc1ccc(-c2ccc3ncc4ccc(=O)n(-c5cccc(C(F)(F)F)c5)c4c3c2)cn1,Potency,[1],active: 20.9 nM and active: 103 nM
same,Potency,[6],"inconclusive: 0.0296 µM [inhibitor, full curve]"
same,Potency,[7],"inconclusive: 0.0833 µM [inhibitor, full curve]"
same,Potency,[8],active: 0.0332 µM
same,Potency,[9],"inconclusive: 0.282 µM [cytotoxic, full curve, poor fit]"
same,Potency,[10],active: 0.631 µM
same,Potency,[11],active: 1 µM
same,Potency,[12],active: 0.316 µM
same,Potency,[2],active: 316 nM
same,Potency,[5],active: 8.91 µM
same,Potency,[13],"inconclusive: 0.282 µM [cytotoxic, full curve, poor fit]"
same,Potency,[14],"inconclusive: 1.26 µM [cytotoxic, full curve, poor fit]"
O=c1c(O)c(-c2ccc(O)c(O)c2)oc2cc(O)cc(O)c12,Potency,[1],"inconclusive: 18.8 µM [inhibitor, partial curve, poor fit]"
same,max response,[1],inactive: -3.23%
same,Potency,[4],"inconclusive: 23.5 µM [inhibitor, single point]"
same,Potency,[15],active: 15.8 µM
same,Potency,[5],inactive
same,Potency,[13],"inconclusive: 39.8 µM [cytotoxic, single point]"
same,Potency,[14],"inconclusive: 44.7 µM [cytotoxic, partial curve, poor fit]"
CN(C(=O)C(Cl)Cl)c1ccc(OC(=O)c2ccco2)cc1,max response,[16],inactive: -7.7%
same,Potency,[8],inactive
same,Potency,[9],inactive
same,Potency,[5],inactive
same,Potency,[13],inactive
Cc1ccc(NC(=O)c2ccc(CN3CCN(C)CC3)cc2)cc1Nc1nccc(-c2cccnc2)n1,Potency,[1],"inconclusive: 33.5 µM [inhibitor, single point]"
same,Potency,[17],"inconclusive: 16.8 µM [inhibitor, single point]"
same,Potency,[9],"inconclusive: 39.8 µM [cytotoxic, single point]"
same,Potency,[10],"inconclusive: 31.6 µM [cytotoxic, partial curve, poor fit] and inconclusive: 2.82 µM [cytotoxic, partial curve, poor fit]"
same,Potency,[12],"inconclusive: 22.4 µM [cytotoxic, partial curve]"
same,Potency,[2],"inconclusive: 20 µM [cytotoxic, partial curve] and inconclusive: 22.4 µM [cytotoxic, partial curve, poor fit]"
same,Potency,[5],"inconclusive: 39.8 µM [cytotoxic, single point]"
same,Potency,[13],"active: 35.5 µM and inconclusive: 22.4 µM [cytotoxic, partial curve, poor fit]"
same,Potency,[14],"inconclusive: 39.8 µM [cytotoxic, single point]"
same,Potency,[3],"inconclusive: 39.8 µM [cytotoxic, single point] and inconclusive: 35.5 µM [cytotoxic, single point]"
CCOc1ccc(Cc2cc([C@@H]3O[C@H](CO)[C@@H](O)[C@H](O)[C@@H]3O)ccc2Cl)cc1,max response,[1],inactive: 1.42%
same,Potency,[18],"inconclusive: 37.2 µM [inhibitor, partial curve, poor fit]"
same,Potency,[4],"inconclusive: 20.9 µM [inhibitor, single point]"
Cc1nc(N)sc1-c1ccnc(Nc2ccc(N3CCOCC3)cc2)n1,Potency,[6],"inconclusive: 3.72 µM [inhibitor, full curve]"
same,Potency,[18],"inconclusive: 2.35 µM [inhibitor, full curve]"
same,Potency,[8],"inconclusive: 2.09 µM [inhibitor, full curve]"
same,Potency,[4],"inconclusive: 2.96 µM [inhibitor, full curve]"
same,Potency,[9],"inconclusive: 15.8 µM [cytotoxic, partial curve]"
same,Potency,[10],"inconclusive: 1.58 µM [cytotoxic, full curve, poor fit]"
same,Potency,[11],"inconclusive: 20 µM [cytotoxic, partial curve, poor fit]"
same,Potency,[12],active: 10 µM
same,Potency,[2],"inconclusive: 17800 nM [cytotoxic, partial curve, poor fit]"
same,Potency,[5],"inconclusive: 35.5 µM [cytotoxic, single point]"
same,Potency,[13],active: 15.8 µM
same,Potency,[14],active: 8.91 µM
CO[C@H]1C=CC=C(C)C(=O)NC2=CC(=O)C(NCCN(C)C)=C(C[C@@H](C)C[C@H](OC)[C@@H](O)[C@@H](C)C=C(C)[C@@H]1OC(N)=O)C2=O,Potency,[1],active: 0.132 µM
same,Potency,[6],active: 4.69 µM
same,Potency,[7],active: 3.72 µM
same,Potency,[17],active: 14.8 µM
CC[N+](CC)(CC)CCOc1cccc(OCC[N+](CC)(CC)CC)c1OCC[N+](CC)(CC)CC,max response,[16],inactive: -10.5% and inactive: -5.4%
same,Potency,[10],inactive
CCOc1ccc2nc(S(N)(=O)=O)sc2c1,outcome,[1],inactive
same,Potency,[8],"inconclusive: 21.1 µM [inhibitor, partial curve, poor fit]"
same,Potency,[4],inactive
same,Potency,[12],inactive
same,Potency,[13],inactive
same,Potency,[3],"inconclusive: 3.98 µM [rising, single point]"
Cc1ccc(N)cc1O,Potency,[1],"inconclusive: 43.3 µM [inhibitor, single point]"
same,Potency,[6],"inconclusive: 38.6 µM [inhibitor, single point]"
same,Potency,[18],active: 6.11 µM
same,Potency,[9],"inconclusive: 70.8 µM [cytotoxic, partial curve, poor fit]"
same,Potency,[10],"inconclusive: 39.8 µM [cytotoxic, single point]"
same,Potency,[11],"inconclusive: 8.91 µM [cytotoxic, partial curve, poor fit]"
same,Potency,[5],"inconclusive: 63.1 µM [cytotoxic, single point]"
same,Potency,[13],"inconclusive: 35.5 µM [cytotoxic, single point]"
same,Potency,[14],"inconclusive: 44.7 µM [cytotoxic, single point]"
same,Potency,[3],"inconclusive: 12.6 µM [rising, single point]"
CCN1/C(=C/C=C/c2sc3ccccc3[n+]2CC)Sc2ccccc21,Potency,[6],active: 3.26 µM
same,Potency,[7],active: 5.8 µM
same,Potency,[17],active: 0.058 µM
same,Potency,[4],active: 0.82 µM
same,Potency,[9],active: 2.51 µM
same,Potency,[10],"inconclusive: 10 µM [cytotoxic, partial curve, poor fit]"
same,Potency,[11],"inconclusive: 0.251 µM [cytotoxic, full curve, poor fit]"
same,Potency,[5],"inconclusive: 17.8 µM [cytotoxic, single point]"
same,Potency,[13],active: 2.24 µM
same,Potency,[14],active: 1.41 µM
same,Potency,[3],active: 0.126 µM
CCCn1c(=O)c2[nH]c(C34CC5CC3C[C@@H](C5)C4)nc2n(CCC)c1=O,max response,[1],inactive: -0.656%
Nc1ccc(S(=O)(=O)c2ccc(N)cc2)cc1,max response,[1],inactive: 3.17%
same,Potency,[4],inactive
same,Potency,[14],"inconclusive: 39.8 µM [rising, single point]"
same,Potency,[3],"inconclusive: 25.1 µM [rising, partial curve, poor fit]"
CNCCCCOc1ccccc1Cc1ccccc1,Potency,[1],"inconclusive: 33.5 µM [inhibitor, single point]"
same,Potency,[8],"inconclusive: 26.6 µM [inhibitor, single point]"
same,Potency,[4],active: 18.8 µM
same,Potency,[9],active: 25.1 µM
same,Potency,[10],"inconclusive: 39.8 µM [cytotoxic, single point]"
same,Potency,[11],"inconclusive: 31.6 µM [cytotoxic, single point]"
same,Potency,[12],"inconclusive: 39.8 µM [cytotoxic, single point]"
same,Potency,[2],"inconclusive: 31600 nM [cytotoxic, single point]"
same,Potency,[13],"inconclusive: 25.1 µM [cytotoxic, single point]"
same,Potency,[3],"inconclusive: 31.6 µM [cytotoxic, single point]"
CC[C@]1(O)C[C@H]2CN(CCc3c([nH]c4ccccc34)[C@@](C(=O)OC)(c3cc4c(cc3OC)N(C=O)[C@H]3[C@@](O)(C(=O)OC)[C@H](OC(C)=O)[C@]5(CC)C=CCN6CC[C@]43[C@@H]65)C2)C1,Potency,[1],"inconclusive: 41.8 nM [inhibitor, full curve] and inconclusive: 188 nM [inhibitor, full curve]"
same,Potency,[7],"active: 46.9 nM and inconclusive: 75 nM [inhibitor, full curve]"
same,Potency,[17],"inconclusive: 6.6 nM [inhibitor, full curve, poor fit] and active: 11.9 nM"
same,Potency,[8],active: 3 nM and active: 21.1 nM
same,Potency,[4],active: 3.3 nM and active: 26.6 nM
same,Potency,[9],active: 0.631 µM
same,Potency,[11],"inconclusive: 0.708 µM [cytotoxic, full curve, poor fit]"
same,Potency,[15],active: 0.891 µM
same,Potency,[2],"inconclusive: 447 nM [cytotoxic, full curve]"
same,Potency,[5],"inconclusive: 0.158 µM [cytotoxic, full curve, poor fit]"
same,Potency,[13],active: 1.78 µM
same,Potency,[14],active: 0.199 µM
same,Potency,[3],"inconclusive: 0.316 µM [cytotoxic, full curve, poor fit]"
CC(=Cc1ccccc1)C=C1SC(=S)N(CC(=O)O)C1=O,Potency,[6],inactive
same,Potency,[18],inactive
Cc1cc(O)c2ccccc2c1O,Potency,[1],"inconclusive: 33.5 µM [inhibitor, single point]"
same,Potency,[8],"inconclusive: 18.8 µM [inhibitor, partial curve]"
same,Potency,[10],inactive
same,Potency,[12],"inconclusive: 39.8 µM [cytotoxic, single point]"
same,Potency,[14],"inconclusive: 28.2 µM [cytotoxic, single point]"
